# Results taken from paper PMC7819943, “Rice protein-binding microarrays: a tool to detect cis-acting elements near promoter regions in rice”.
# The other results are listed elsewhere or left out.
# Target: T1, OsWOX13 (Oryza sativa, UniProt Q5QMM3 1-267)
# T1 sequence: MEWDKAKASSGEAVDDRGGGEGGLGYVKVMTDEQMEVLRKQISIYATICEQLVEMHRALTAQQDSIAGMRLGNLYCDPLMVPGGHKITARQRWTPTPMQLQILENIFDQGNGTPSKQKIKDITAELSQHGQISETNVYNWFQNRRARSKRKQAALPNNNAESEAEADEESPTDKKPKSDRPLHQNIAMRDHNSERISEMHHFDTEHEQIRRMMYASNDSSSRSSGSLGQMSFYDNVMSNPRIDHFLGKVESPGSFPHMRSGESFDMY
# Experiment: protein-binding microarray (RPBM); PBS, 2% BSA, 51.3 ng/ul salmon testes DNA, 50 uM zinc acetate, 200 nM TF, 25 C, 1 h; high values mean tight binding
# Conditions: protein: recombinant; tags: N-terminal polyhistidine and DsRed monomer fusion (pET32a); label: CyDye5-dUTP incorporated in the synthesized complementary strand; 3' TTTTT single-stranded linker to array surface; dsDNA, one strand shown
# Summary of the method: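 The binding signal for each feature is its fluorescence intensity in arbitrary units. An Axon 4000B scanner was used to read a custom Agilent array that had been made double-stranded with Cy5-dUTP primer extension, blocked with 2% BSA, incubated at 25 °C for 1 h with 200 nM protein in PBS, 2% BSA, salmon testes DNA and 50 µM zinc acetate, and washed. The protein was an N-terminal polyhistidine–DsRed transcription factor fusion from E. coli BL21-CodonPlus, purified on Ni–NTA.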
row,Sequence,binding signal
1,TAAATAATTGATATGCTAATAAATAATTAGTCCCTTTTACCGGAGTCACCTAGTGCAG,24300 fluorescence intensity (a.u.)
2,TTAATGATTTATTGTACGTGAAAGAGAATCACCAAGAGTACGGAGTCACCTAGTGCAG,19300 fluorescence intensity (a.u.)
3,ATAATTGAATTTATAAGACATAGCATGTTAACAAAGCAAACGGAGTCACCTAGTGCAG,32600 fluorescence intensity (a.u.)
4,AGTTTAATAGTGTTAATTAAAATGATAATAAAGTAAACACCGGAGTCACCTAGTGCAG,25300 fluorescence intensity (a.u.)
5,ATGTAAAATTTAATTTTCTATATTATATTAAAGTTGTCACCGGAGTCACCTAGTGCAG,12700 fluorescence intensity (a.u.)
6,GAGAGAATCACAAATCACATCGATAAACATCTATACTCCACGGAGTCACCTAGTGCAG,3190 fluorescence intensity (a.u.)
7,GTCTAAATTTGTAGTAATATGATATGTCGCTTTTAGTGTTCGGAGTCACCTAGTGCAG,20700 fluorescence intensity (a.u.)
8,CATAAAATTGATGTTATTATATCTACATTTAAAAGTATTTCGGAGTCACCTAGTGCAG,5740 fluorescence intensity (a.u.)
9,TAAAATATTAATCATGTTTTATCATCTAACAACAATGAAACGGAGTCACCTAGTGCAG,4550 fluorescence intensity (a.u.)
10,CATCATTCCCATCAATCAATCAAATCCGTGCGAGAAGCGGCGGAGTCACCTAGTGCAG,31800 fluorescence intensity (a.u.)
11,GCGAAGATTTGATGTAATCATGTAGACTACCATCTCCATACGGAGTCACCTAGTGCAG,19900 fluorescence intensity (a.u.)
12,CCATTAGATTAGCACTAATTATCATACTTAGTCATTAGCTCGGAGTCACCTAGTGCAG,59100 fluorescence intensity (a.u.)
13,AATTTCTAATAATTATACGTCTGACCTTATTCTGAAGATTCGGAGTCACCTAGTGCAG,4420 fluorescence intensity (a.u.)
14,CCAAATTAGAGAGGTTCAGATATCCTTATCTCGAAAGAGTCGGAGTCACCTAGTGCAG,4440 fluorescence intensity (a.u.)
15,GAGGCCAATCAGGTTGATGATGAAGAGGATGATTTCAGCGCGGAGTCACCTAGTGCAG,18200 fluorescence intensity (a.u.)
16,CCTTAATTCAAGTTATGAAATTCAAAACTGCTCCGTTTCCCGGAGTCACCTAGTGCAG,6040 fluorescence intensity (a.u.)
17,CATCTTAATTGGGCCAGAAGGTCATATATGTACTGGAAGGCGGAGTCACCTAGTGCAG,28200 fluorescence intensity (a.u.)
18,CCATATAATAGGCAATTACTTATGCAAATGATAACTGATCCGGAGTCACCTAGTGCAG,17500 fluorescence intensity (a.u.)
19,ATGTCAACAAATTACGCATAAACTAAAATTCATGGACACCCGGAGTCACCTAGTGCAG,8200 fluorescence intensity (a.u.)
20,CCATATCAATATCATATAAACTGGATTAGGGCTATTACCTCGGAGTCACCTAGTGCAG,3840 fluorescence intensity (a.u.)
21,GCGAATAATTTGTATGTATAAGTAGTTGCTTTCAATATGTCGGAGTCACCTAGTGCAG,7010 fluorescence intensity (a.u.)

row,Sequence,binding signal
1,TTGGTAAAATTGACAAATATATAGCTACATTTAGTTGTTACGGAGTCACCTAGTGCAG,14200 fluorescence intensity (a.u.)
2,TCCAATCATATTTTGATTTATTTTGGAACGGAGAGAGAAGCGGAGTCACCTAGTGCAG,17100 fluorescence intensity (a.u.)
3,TAAAATTGCATCATCTTACTTTTACATTTGAATCATCTATCGGAGTCACCTAGTGCAG,4050 fluorescence intensity (a.u.)
4,TTCCCTTCTTAACCAATCATAATCCTGCACTATTCATTTTCGGAGTCACCTAGTGCAG,3760 fluorescence intensity (a.u.)
5,CTAATAGAATGACGTGTAATTCCTTGTCACATTCATAAAACGGAGTCACCTAGTGCAG,7340 fluorescence intensity (a.u.)
6,ACAATAAAATTTATTGATGCCAGAAATATGCCGTTTGTCTCGGAGTCACCTAGTGCAG,4740 fluorescence intensity (a.u.)
7,TTTTCTTATTGATTATAGATTTATAGTAGTTCTGTGTGTACGGAGTCACCTAGTGCAG,36800 fluorescence intensity (a.u.)
8,TGAACTGAAATAATCAAAACTACAAATTAGTTGAAACTGTCGGAGTCACCTAGTGCAG,5640 fluorescence intensity (a.u.)
9,ACGACTGATTTGCGACGCTGTTGGGCGAGGTAGAGGCGGCCGGAGTCACCTAGTGCAG,12300 fluorescence intensity (a.u.)
10,TAGCTAAATGTCAATTTTCTCGTCTATGTGGCAGTCGCCACGGAGTCACCTAGTGCAG,19100 fluorescence intensity (a.u.)
11,AAAGATTGACCAATGGCAAGCTAGCACAAGACACCAAGCACGGAGTCACCTAGTGCAG,19300 fluorescence intensity (a.u.)
12,TCATTTGATGGATGATTGCAAAGTAAAGGTTTCATTGATCCGGAGTCACCTAGTGCAG,32100 fluorescence intensity (a.u.)
13,CCATAATATGTGGGTGATTTGTTGCAAAAGTTTGTTTTAACGGAGTCACCTAGTGCAG,10800 fluorescence intensity (a.u.)
14,GAATCAATCAAATAAAATCTATTATGTATATTCATTCATACGGAGTCACCTAGTGCAG,29300 fluorescence intensity (a.u.)
15,ACCCTTCTAAAATTTGTCATTGTCAAATTTTAACACATTTCGGAGTCACCTAGTGCAG,5980 fluorescence intensity (a.u.)
16,TGTAATTAAGCTATGAGTAATTAGCCATAGTTTCTTTAAACGGAGTCACCTAGTGCAG,6440 fluorescence intensity (a.u.)
17,GATGATGAATGGTTATAGAGGCAGGGCACCATCCCACCTTCGGAGTCACCTAGTGCAG,6420 fluorescence intensity (a.u.)
18,AAGATTCAATTAAACTTTTAAAATTTAACCATCAATAAATCGGAGTCACCTAGTGCAG,11500 fluorescence intensity (a.u.)
19,TACTAGTTACTATAGCTGTGATTGGTGTTTAATTGGTTACCGGAGTCACCTAGTGCAG,25600 fluorescence intensity (a.u.)
20,TGCTAGTAATTATGAAAGTACTTCCCTCAAGGCACCCAATCGGAGTCACCTAGTGCAG,3820 fluorescence intensity (a.u.)
21,AATAAACTGATTTCTACGAAATTTCTATAAAATAGTTACTCGGAGTCACCTAGTGCAG,17300 fluorescence intensity (a.u.)
